According to the supplement of paper PMC7826260:
Some of the results follow. One pool of 16,384 single-stranded DNAs met each Rep nickase domain in vitro for 1 h at 37 °C with 3 µM enzyme; only the middle of the 90-letter strands is printed. A value is the log2 ratio of uncut reads to the pool without enzyme; strong cutting gives strongly negative numbers. There is no active / inactive call. Reads are scaled to the total; where an enzyme cuts many sequences, the uncut ones exceed 0.

Experiments:
Test in all cases: uncleaved DNA left, log2 of reads against the no-enzyme library (log2 ratio); higher = less cleavage (more negative = more Rep cleavage of the k-mer); sequences stand for … in CTCGTCCG…ACCGGAGA
[1] = tested on: T1, Rep nickase domain of Muscovy duck circovirus
T1 sequence (Rep 1-111, printed without the tag): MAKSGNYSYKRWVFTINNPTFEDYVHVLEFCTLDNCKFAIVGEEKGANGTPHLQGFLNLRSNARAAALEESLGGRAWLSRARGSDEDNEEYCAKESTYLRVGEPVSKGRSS
Description: (§1)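 A pool of 90-nt single-stranded DNAs with seven random bases just before the constant AC of the nick site (name = the seven bases) was cut by 3 µM recombinant His6-SUMO-tagged Rep nickase domain (300 nM DNA, 50 mM HEPES pH 8.0, 50 mM NaCl, 1 mM MnCl2, 1 h, 37 °C, three replicates). Uncut DNA was amplified and sequenced.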

[2] = tested on: T2, Rep nickase domain of banana bunchy top virus
T2 sequence (Rep 1-94, printed without the tag): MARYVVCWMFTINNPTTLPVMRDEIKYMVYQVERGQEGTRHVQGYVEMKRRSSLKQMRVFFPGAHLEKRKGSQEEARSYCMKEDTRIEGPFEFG
Description: as §1

[3] = tested on: T3, Rep nickase domain of cabbage leaf curl virus
T3 sequence (Rep 1-116, printed without the tag): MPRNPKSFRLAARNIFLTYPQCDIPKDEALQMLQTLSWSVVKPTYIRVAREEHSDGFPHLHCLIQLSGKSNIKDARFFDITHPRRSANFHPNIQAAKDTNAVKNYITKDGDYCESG
Description: as §1

[4] = tested on: T4, Rep nickase domain of chickpea chlorotic dwarf virus
T4 sequence (Rep 1-124, printed without the tag): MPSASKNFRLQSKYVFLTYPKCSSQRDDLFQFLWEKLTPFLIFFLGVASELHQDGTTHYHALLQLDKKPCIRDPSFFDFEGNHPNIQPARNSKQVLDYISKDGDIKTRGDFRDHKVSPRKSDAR
Description: as §1

[5] = tested on: T5, Rep nickase domain of faba bean necrotic yellows virus
T5 sequence (Rep 1-98, printed without the tag): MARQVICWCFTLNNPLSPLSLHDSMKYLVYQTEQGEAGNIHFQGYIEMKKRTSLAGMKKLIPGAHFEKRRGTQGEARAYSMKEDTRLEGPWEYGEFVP
Description: as §1

[6] = tested on: T6, Rep nickase domain of maize striate mosaic virus
T6 sequence (Rep 1-117, printed without the tag): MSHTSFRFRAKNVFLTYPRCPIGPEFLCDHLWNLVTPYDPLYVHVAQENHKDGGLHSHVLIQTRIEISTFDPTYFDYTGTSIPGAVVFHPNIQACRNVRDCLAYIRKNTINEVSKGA
Description: as §1

[7] = tested on: T7, Rep nickase domain of porcine circovirus 2
T7 sequence (Rep 2-116, printed without the tag): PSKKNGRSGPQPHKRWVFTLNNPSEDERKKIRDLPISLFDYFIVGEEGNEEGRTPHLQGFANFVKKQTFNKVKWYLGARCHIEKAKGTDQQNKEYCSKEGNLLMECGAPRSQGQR
Description: as §1

[8] = tested on: T8, Rep nickase domain of tomato golden mosaic virus
T8 sequence (Rep 1-124, printed without the tag): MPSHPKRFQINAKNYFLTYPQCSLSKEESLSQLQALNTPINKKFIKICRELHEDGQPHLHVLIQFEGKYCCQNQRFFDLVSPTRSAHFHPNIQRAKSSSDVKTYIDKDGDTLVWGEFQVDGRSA
Description: as §1

[9] = tested on: T9, Rep nickase domain of tomato yellow leaf curl virus
T9 sequence (Rep 1-136, printed without the tag): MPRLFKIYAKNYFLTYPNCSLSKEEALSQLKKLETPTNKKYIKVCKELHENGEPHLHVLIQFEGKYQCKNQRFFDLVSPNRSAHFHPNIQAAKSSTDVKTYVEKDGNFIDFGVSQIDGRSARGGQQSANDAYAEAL
Description: as §1

[10] = tested on: T10, Rep nickase domain of wheat dwarf virus
T10 sequence (Rep 1-137, printed without the tag): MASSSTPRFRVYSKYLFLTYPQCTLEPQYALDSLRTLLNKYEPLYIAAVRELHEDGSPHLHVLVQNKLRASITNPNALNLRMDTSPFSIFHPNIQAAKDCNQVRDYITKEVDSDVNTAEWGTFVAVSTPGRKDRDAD
Description: as §1

Sequence	uncleaved DNA left (log2) [1]	uncleaved DNA left (log2) [2]	uncleaved DNA left (log2) [3]	uncleaved DNA left (log2) [4]	uncleaved DNA left (log2) [5]	uncleaved DNA left (log2) [6]	uncleaved DNA left (log2) [7]	uncleaved DNA left (log2) [8]	uncleaved DNA left (log2) [9]	uncleaved DNA left (log2) [10]
CGGTGGT	-0.0408	-0.215	0.0361	0.532	-0.0793	1.12	-1.06	-0.0495	-0.0835	-0.0789
CATGATG	-0.0192	-0.0397	-0.364	-0.282	-0.133	-0.718	0.0244	0.00148	-0.0956	-0.0563
GCTCGGC	-0.126	-0.0971	0.0224	0.368	-0.157	-0.258	-0.1	-0.0728	-0.0813	-0.104
GCGTTTC	0.015	0.0799	0.289	0.369	-0.0502	0.107	0.07	0.00607	0.0593	0.0881
ACAACAC	-0.0763	-0.0593	-0.104	-0.516	-0.0402	-0.65	0.215	-0.0268	-0.054	0.0373
CGCCAAG	-0.0224	-0.0272	-0.554	-0.392	-0.147	-0.875	0.0195	-0.129	0.0296	-0.175
TCGTTAG	0.0339	-0.035	-0.186	-0.0384	0.0445	-0.839	0.0722	0.0381	0.0465	0.0234
TTGAACG	-0.0437	0.0493	-0.654	-0.564	-0.091	-1	0.156	0.00242	0.0854	-0.0409
GCAATGG	0.0893	0.0458	0.116	0.99	0.0195	0.556	0.115	0.13	-0.00573	-0.0221
TTACTCC	-0.112	-0.112	0.119	-1.03	-0.0367	0.493	-0.0736	-0.0939	-0.104	-0.0365
CCCAACT	-0.0262	-0.0562	-0.398	-2.42	-0.0186	-0.811	-0.33	-0.116	-0.168	-0.185
AAACATG	0.0581	0.172	-0.278	-0.534	0.186	-0.83	0.124	0.109	0.0393	-0.0305
GGAGTCC	-0.0503	0.105	0.629	1.25	-0.0333	1.84	-0.0116	0.00221	0.0668	0.24
CGGTAGT	-1.05	-0.141	-0.113	-0.0746	-0.296	-0.142	-3.05	-0.109	-0.0531	-0.154
AATTTGG	-0.000184	-0.022	-0.263	-0.2	-0.00525	-0.935	-0.00736	-0.0321	-0.0019	0.0655
GCCGTTC	0.0389	-0.0809	0.259	0.31	0.0503	0.138	0.012	0.0947	0.126	-0.0814
CCGTTTC	-0.205	-0.144	-0.00133	-0.248	-0.272	-0.527	-0.206	-0.179	-0.292	-0.0729
GCGCGGG	0.0369	0.0401	-0.135	0.0907	0.0163	0.135	0.1	-0.0066	0.0482	-0.108
AACCAGA	-0.0293	-0.0415	-0.149	-0.685	0.058	-0.889	-0.0879	0.116	0.0279	0.0684
ATGGACA	0.00168	0.0147	0.638	1.5	-0.124	1.64	0.13	-0.0386	0.113	0.23
CGAGCCG	0.00966	-0.133	-0.702	-0.541	-0.09	-0.885	0.0564	-0.126	-0.0364	-0.207
GCACACT	0.00484	-0.0537	-0.224	-1.94	-0.0513	-0.147	-0.0414	-0.102	-0.0587	0.00267
AACGGGT	0.0872	0.0461	0.352	1.48	-0.0693	1.82	0.225	0.152	-0.0127	-0.0188
TCTTTTT	-3.03	-0.37	-0.0157	-2.04	0.165	-0.539	-3.38	-0.0546	-0.0777	-0.0454
GCGACAC	0.0629	0.0563	0.343	0.993	0.12	1.47	0.0874	0.127	0.0353	0.133
TACCAAA	0.02	0.133	-0.0213	-1.19	0.0949	-0.36	-0.411	-0.0172	0.0456	0.096
CTCGGCA	0.0405	0.0792	-0.0295	-0.397	0.145	-0.728	-0.063	0.0577	0.216	0.00421
TTACATA	0.0092	0.0156	0.00452	-1.28	0.042	-0.0272	-0.0541	-0.0864	0.0158	0.103
AATTACA	-2.44	-0.77	-0.597	-3	-0.0588	-0.836	-2.09	-0.0725	0.0728	-0.119
GCGTCAC	0.0431	0.112	0.115	0.509	0.00798	0.408	0.073	-0.0499	0.0897	0.196
